Source: PubChem BioAssay AID1814 (Broad Institute, 2009)
Among all 300,000 compounds or so, about 22,000 (7.3%) were called active. This list was built around the results that the source calls inconclusive (neither active nor inactive); the mix of calls is not that of the screen. Rule as the data show it: active = activity score below about -60%; inconclusive = mostly about -28% to -61%; inactive = positive scores.

Experiment: Activators via SNCA 5'UTR binding, MLPCN (AID 1814)
Conditions: alpha-synuclein 5'UTR reporter, activators screen; stronger effect = lower value; tested at 7.5 µM

Structure (SMILES) | activity score
COc1ccc(C(CNC(=O)c2ccco2)N2CCCCC2)cc1 (centres undefined) | inconclusive: -35.2%
COc1ccc(N2CCN(S(=O)(=O)CCNC(=O)Cc3ccc([N+](=O)[O-])cc3)CC2)cc1 | inactive: 65.3%
O=C(COc1ccccc1Br)NCc1ccco1 | inconclusive: -59.9%
NC(=O)c1c(NC(=O)c2cccnc2Cl)sc2c1CCCC2 | inconclusive: -50.2%
O=C(Cc1n[nH]c(=O)c2ccccc12)OCC(=O)c1ccc2c(c1)OCCO2 | inactive: 80.4%
Nn1cnnc1N/N=C/c1ccc(Cl)c([N+](=O)[O-])c1 | inconclusive: -51.9%
Cc1cc(=O)[nH]c(N/N=C/c2sccc2C)n1 | active: -90.4%
COCCNC(=O)c1c[nH]c2ccc(S(=O)(=O)N3CCc4ccccc43)cc2c1=O | inactive: 61.2%
COC(=O)c1c(-c2cccc(C)c2)csc1NC(=O)C1CCCO1 (centres undefined) | inconclusive: -55.8%
COCC(=O)Nc1cc(C(=O)Nc2cccc(C)c2C)ccc1Cl | inconclusive: -36%
CCOc1cc(N2CCOCC2)c(OCC)cc1NC(=O)COc1cccc2cccnc12 | inactive: 88.8%
CC(=O)c1ccc(Oc2cc(C)nc(-n3nc(C)cc3C)n2)cc1 | inactive: 80.1%
Cc1ccc(Nc2nc(-c3c(C)nc4ncccn34)cs2)cc1 | inactive: 84%
CC(=O)c1cccc(NC(=O)CCOc2ccccc2)c1 | inconclusive: -54%
CCOC(=O)COc1ccccc1C(=O)c1cnn(-c2ccccc2)c1 | inconclusive: -58.8%
Cc1cc(NC(=O)c2ccc(NC(=O)C3CC3)cc2)no1 | inconclusive: -51.1%
CC1CCN(c2nc3ccc(C(=O)N4CCN(Cc5ccccc5)CC4)cc3s2)CC1 | active: -137%
Cc1cc(N2CCN(c3ccc([N+](=O)[O-])c4cccnc34)CC2)c2ccccc2n1 | inactive: 83.7%
COc1ccc(C(=O)N2CCN(Cc3ccc4c(c3)OCO4)CC2)cc1[N+](=O)[O-] | inactive: 46.4%
CCNS(=O)(=O)c1ccc(NC(=O)Nc2ccccc2OC)cc1 | active: -79.2%

Structure (SMILES) | activity score
Cc1ccc(/C=N/NC(=O)c2nnn(-c3nonc3N)c2-c2cccs2)cc1 | inactive: 69.3%
COc1cccc(/C=N/NC(=O)c2cnn(-c3ccccc3)c2N)c1 | inconclusive: -56.7%
Cc1cccc(NCC(=O)c2c(N)n(C)c(=O)n(C)c2=O)c1C | inconclusive: -59.9%
CCC1CCCCN1C(=S)Nc1ccc(C(C)=O)cc1 (centres undefined) | inconclusive: -29.8%
COc1ccc(CCC(=O)NCCOc2ccccc2Cl)cc1 | active: -91.8%
COc1cc(-c2nnc(-c3ccco3)o2)ccc1OCc1ccccc1 | inconclusive: -61%
CCCCNC(=O)c1cc2cc(CC)ccc2[nH]1 | inconclusive: -55.9%
O=C(Nc1ccc(N2CCCCC2)cc1)c1cc([N+](=O)[O-])cc([N+](=O)[O-])c1 | inconclusive: -55.7%
O=C1CC(c2ccccc2Cl)=NN(c2ncnc3ccccc23)C1=O | active: -73.7%
Cc1c(C(=O)Nc2nonc2-c2ccc(F)cc2)oc2ccc(F)cc12 | inactive: 54%
Cc1cc(-c2sccc2C)nc(-n2cccc2)n1 | inconclusive: -59.4%
Cc1c(C(=O)N/N=C/c2ccc(-c3ccccc3[N+](=O)[O-])o2)sc(N)c1C#N | inconclusive: -49.4%
COc1ccc(C(CC(=O)c2ccc(C)cc2)Nc2ccc([N+](=O)[O-])cc2)cc1 (centres undefined) | inconclusive: -46.4%
O=c1c2ccccc2oc2cc(C#CC3(O)CCCCC3)ccc12 | inactive: 77.3%
CC1(C)N=C(N)N=C(N)N1c1ccc(Oc2ccc(Cl)cc2)c(Cl)c1 | inactive: 85.1%
Cc1c(NC(C)c2ccccc2O)c(=O)n(-c2ccccc2)n1C (centres undefined) | inconclusive: -41%
CC(C)CCN1C(=O)c2cccc3c(N)ccc(c23)C1=O | inactive: 60.9%
CCc1cccc(NC2c3ccccc3C(=O)N2c2ccc(C)cn2)c1 (centres undefined) | inconclusive: -48.8%
O=C(Nc1cc(=O)c2ccccc2o1)N1CCOCC1 | inconclusive: -47.2%
CCCCn1nnc(NC(=O)c2ccco2)n1 | inconclusive: -54.4%

Structure (SMILES) | activity score
CN(C)S(=O)(=O)c1ccc(C(=O)Nc2nc(-c3cccs3)cs2)cc1 | active: -99.3%
CCC(Sc1nc2n[nH]c(C)c2c(=N)n1-c1cccc(Cl)c1C)C(=O)N(CC)CC (centres undefined) | inactive: 50.8%
CCCCC(=O)NC(c1ccc(C(C)C)cc1)c1ccc2cccnc2c1O (centres undefined) | inactive: 112%
CC(NS(=O)(=O)/C=C/c1ccccc1)C(=O)O (centres undefined) | inconclusive: -38.8%
COc1cccc(C(=O)NC23CC4CC(CC(C4)C2)C3)c1 | inconclusive: -54.1%
CC(C)Nc1ncnc2c1cnn2-c1ccc(Cl)cc1 | inactive: 56.3%
COc1cc2c(cc1NC(=O)c1cccc(S(=O)(=O)N(C)C)c1)oc1ccccc12 | inconclusive: -59.1%
O=C(Cc1ccc(Br)cc1)Nc1ncc([N+](=O)[O-])s1 | active: -105%
C/C(CC(=O)Nc1cccc(Cl)c1Cl)=N\NC(=O)c1ccccc1N | inconclusive: -61.5%
COc1ccc(/C=N/NC(=O)c2cccnc2)cc1COc1ccc(NC(C)=O)cc1 | active: -83.6%
c1ccc(Oc2cnc3ccccc3n2)cc1 | inconclusive: -31.3%
COc1cc(/C=C(\C#N)C(=O)Nc2cccc(C(=O)O)c2)ccc1OCc1ccc(Cl)cc1 | inconclusive: -57.5%
CCN(CC)c1ccc(C(=O)OCC(=O)N2CCCC2)cc1 | inconclusive: -60.3%
Nc1nnc(SCc2cn3cc(Cl)ccc3n2)s1 | active: -96.6%
c1ccc(-c2nc(-c3ccncc3)n[nH]2)nc1 | inconclusive: -54%
c1ccn2cc(-c3ccc4c(c3)OCCO4)nc2c1 | inactive: 98.5%
O=C1c2ccccc2S(=O)(=O)N1Cc1nc2ccccc2s1 | inactive: 112%
CCN(CC)S(=O)(=O)c1ccc(N/N=C/c2cc(OC)ccc2O)nc1 | inactive: 86.8%
Cc1ccc(NC(=S)Nc2cccc3cnccc23)cc1C | inconclusive: -61.1%
